The labels stand for the following.
B1: tRNA (parent)
chain: CUCUCGGUAGCCAAGUUGGUUUAAGGCGCAAGACUUUAAUUUAUCACUACGAAAUCUUGAGAUCGGGCGUUCGACUCGCCCCCGGGAGAUUUUUUCCUCGAGCAA

Variants at the floor of the assay are shown more often than the library holds them. Bounds are passed on as bounds.

Variants of B1 are the subject of the data set. The data set is described as follows: nonsense suppression (GFP-seq) (ratio to wild type); higher = more function; SUP4oc tRNA, yeast GFP reporter sort-seq. Put shortly:
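Yeast were grown in raffinose/galactose medium with 80 mg/L adenine, each strain bearing a genome-integrated ochre-suppressor tRNA variant from a ~3% random-mutation library, a galactose-driven GFP ochre reporter, and RFP. After sorting into GFP/RFP bins, every bin was sequenced on an Illumina platform at phred ≥30. The GFPSEQ value, a measure of nonsense suppression, is the weighted bin median GFP/RFP relative to the unmutated parent tRNA, using each variant's estimated cell share per bin as the weight. Only variants with ≥100 reads and ≥30 cells were included.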
With C27U U76G, the nonsense suppression was no more than 0.026.
As for A14G C77G C80U, the figure is no more than 0.026; as for A13C A60G, 0.392.
As for C3U A60G G66U, the figure is no more than 0.026; as for C29G U58G G84U, no more than 0.026; as for U17C A23G G66C U71G, no more than 0.026.
As for C1G U58C G59A, the figure is no more than 0.026; as for U21C A24U, 0.194; as for U21C A24G, 0.0906.
For U4A U17G U76A, the nonsense suppression is no more than 0.026.
Then A24C C68U, with 0.765; and U2A G65C, with no more than 0.026.
Then C3A A33C U57G, with no more than 0.026; and U8G G25A, with no more than 0.026; and G18U U55C G59A, with no more than 0.026.
Take C5A G78C: the nonsense suppression was no more than 0.026.
For the variant U4C A87C, the nonsense suppression came out at 0.197.
Then A60C G66C, with no more than 0.026; and C81A G86U, with no more than 0.026.
As for G15A U21A U70C, the figure is no more than 0.026; as for U71G A89C, no more than 0.026; as for U16C, 0.862.
With C1U G25C C29U U57A A62C, the nonsense suppression is no more than 0.026.
Then U17A A23G A31C, with no more than 0.026; and U4G U57A G59A G69C G88C A89C, with no more than 0.026.
As for A13G A24U A74U, the nonsense suppression was no more than 0.026.
As for U4G A14C U70A, the figure is no more than 0.026; as for U4C U17C G73U, no more than 0.026.
Then G19C G25A G73C C79A, with no more than 0.026.
As for G15U G25C G86U, the figure is no more than 0.026; as for U8C U17G G26C U55G G61A G84C, no more than 0.026.
In the case of A62U G86A, the nonsense suppression was no more than 0.026.
Then U8A A54U C56A C72A, with no more than 0.026; and A23G A30G A60U A62C C72A, with no more than 0.026.
Then G67A G84C, with no more than 0.026.
As for C1A A60C C75U, the figure is no more than 0.026; as for C5U C80G, no more than 0.026.
For the variant C56G G78A, the nonsense suppression is no more than 0.026.
With G7A C29G, the nonsense suppression was no more than 0.026.
As to G69C G88A, the nonsense suppression is no more than 0.026.
Then U21G G61U, with 0.554; and U20C G67C G88A, with no more than 0.026; and C1G U17A G61C, with no more than 0.026.
Then C3U G25A G61U, with no more than 0.026; and U2G A31C G59A, with no more than 0.026; and G26U A30G C56G U57C G86A, with no more than 0.026.
As for U17A G85U G88U, the figure is no more than 0.026.
C3U U35C C80A: the nonsense suppression is no more than 0.026.
Then A9U U21G A54C, with no more than 0.026; and U55G C56A A74U A87U, with no more than 0.026; and G7C A62G G88C, with no more than 0.026.
As for U8G A9G A62C C77A, the figure is no more than 0.026; as for A30G G59A, no more than 0.026.
Then C12U U71C U76G G86U, with no more than 0.026; and G6U A89C, with no more than 0.026; and C27U G69A, with no more than 0.026.
Turning to A9G A14C A54G, the nonsense suppression was no more than 0.026.
For the variant G15U A33U C75G, the nonsense suppression was no more than 0.026.
A60C C64U G66A: the nonsense suppression was no more than 0.026.
Turning to C27A A33G U70G, the nonsense suppression was no more than 0.026.
Then C12U A14U U22A G59U, with no more than 0.026; and U57A G67U, with no more than 0.026.
Turning to U8C C27G C29G G88U, the nonsense suppression was no more than 0.026.
Turning to U35A G73A G86A, the nonsense suppression is no more than 0.026.
Then C1U A24C C72U, with no more than 0.026.
As for U22C U57G, the figure is no more than 0.026.
In the case of C3U C34A, the nonsense suppression is no more than 0.026.
As for A23G C68A, the figure is no more than 0.026; as for U8G G18A A74U, no more than 0.026.
As for U8C U57G C75G G88A, the figure is no more than 0.026; as for A14U G15A U21G U35G, no more than 0.026.
On to A13G U17A G25U A87G, for which the nonsense suppression was no more than 0.026.
Turning to A14C A33G U35G G59C G65A, the nonsense suppression is no more than 0.026.
Then G32U C34A C56A, with no more than 0.026; and C5A C75U, with no more than 0.026; and G18A G61U, with no more than 0.026.
Then C34U U58C U76A G84A, with no more than 0.026; and A14C U57A U58G, with no more than 0.026; and A24C G66U, with no more than 0.026.
For G65A G66A, the nonsense suppression is no more than 0.026.
As to A13G A30C G61A G69C C72U C82G, the nonsense suppression was no more than 0.026.
As for C3G A74U, the nonsense suppression is no more than 0.026.
Regarding U16C C83A, the nonsense suppression is no more than 0.026.
Then U58C A89G, with no more than 0.026; and A54G G66C, with no more than 0.026.
Then A13U A54G C56A, with no more than 0.026; and C12G G67A A74C G88A, with no more than 0.026.
Then G32A G66U, with no more than 0.026; and G7U G66A, with no more than 0.026; and U22A G32C A74U G84U, with no more than 0.026.
In the case of A14C G59A, the nonsense suppression is no more than 0.026.
In the case of C11A A31U C64U G78A, the nonsense suppression is no more than 0.026.
As for G7A A14G G28U A30U U57G, the figure is no more than 0.026; as for G18A G28U U58A A62C A74G, no more than 0.026; as for G10C G84C, no more than 0.026.
Then G19C C29A A54G G61A G88C, with no more than 0.026.
As for C12U G19A G65C C80A, the figure is no more than 0.026; as for U55C U70C, no more than 0.026; as for G7U U21A G78A C79A, no more than 0.026.
With G25U C34G G85A, the nonsense suppression was no more than 0.026.
With G85U, the nonsense suppression amounted to 1.12.
U57G U58A: the nonsense suppression was no more than 0.026.
Regarding A14G C72A, the nonsense suppression was no more than 0.026.
Regarding U70G G78C, the nonsense suppression was no more than 0.026.
As for G18C A23G C56U G66C, the figure is no more than 0.026.
For C1G G28C, the nonsense suppression is no more than 0.026.
In the case of C5G A33G, the nonsense suppression is no more than 0.026.
Then A60U U63G A74U C83U, with no more than 0.026; and A30U A33C U57G C64A G65C, with no more than 0.026; and C1G G78A C81G A89C, with no more than 0.026.
As for U2A A9U U20A U55A, the nonsense suppression is no more than 0.026.
Then G7A A24C, with 0.123; and A23C C68A, with no more than 0.026.
For the variant G28C C34U G78C, the nonsense suppression was no more than 0.026.
As for U2A U21A C29U, the figure is no more than 0.026.
As for U2A G7U U70G, the figure is no more than 0.026; as for C1A C75A, no more than 0.026; as for C27G A31G G73C, no more than 0.026.
As for A14C A30U U63G, the figure is no more than 0.026; as for C64U C80G, no more than 0.026.
Consider A23U A33G C56U G84C, for which the nonsense suppression was no more than 0.026.
With C12G C34A G88C, the nonsense suppression is no more than 0.026.
As to C68G U70C, the nonsense suppression is no more than 0.026.
As for A30C A87C, the figure is no more than 0.026; as for A14G A62C C75A G84C, no more than 0.026; as for U4G G28U A54C A60C A62C, no more than 0.026.
With A30C U71G, the nonsense suppression is no more than 0.026.
As for A24U U55C, the figure is 0.104; as for G6C U20G G25C C77U, no more than 0.026.
Regarding A9U G28U U76C G78U C81U, the nonsense suppression is no more than 0.026.
On to G6C A62U, for which the nonsense suppression is no more than 0.026.
Then G26U A60C G67U G85U, with no more than 0.026; and G6U G26A A89C, with no more than 0.026.
As to U8G C11G U16A C56G A60C G61U, the nonsense suppression was no more than 0.026.
Then C27U A33G C56A G88A A89U, with no more than 0.026; and A74U C82G, with no more than 0.026.
Regarding A14U G26U A30U C56G U57A, the nonsense suppression was no more than 0.026.
Take G18C A33G C80G: the nonsense suppression is no more than 0.026.
Take C1A U17G C79A: the nonsense suppression was no more than 0.026.
Then G10C G32C, with no more than 0.026.
Then C3A G18A C34G G65A C81G, with no more than 0.026; and U4G U63A, with 0.199; and A9G A14U A23G U71C C77A G85A, with no more than 0.026.
Then U8A C12U A24C G28C, with no more than 0.026; and G6A A23C C81U, with no more than 0.026; and C34U G59C U71A G84C, with no more than 0.026.
Consider G26U G69C, for which the nonsense suppression was no more than 0.026.
As for C5U A24C C27U C82A, the figure is no more than 0.026; as for G25U G28A, no more than 0.026; as for A33C C34U C75U, no more than 0.026.
With A13C A14G A23G C68A, the nonsense suppression was no more than 0.026.
As to C34A U70G, the nonsense suppression was no more than 0.026.
Then C1G G19C G61C G73U, with no more than 0.026; and C27G U55C G59C G67A G78C C81A G88C, with no more than 0.026; and G18C G61A, with no more than 0.026.
On to U8A C29G U35A, for which the nonsense suppression is no more than 0.026.
In the case of G6U U20C A30C C72A C75G C79G, the nonsense suppression is no more than 0.026.
Then A30G C83A, with no more than 0.026; and A24G A30C A62U, with no more than 0.026; and C1A C3A U8A G88A, with no more than 0.026.
As for C5A A13U, the figure is no more than 0.026; as for G26U A60G, no more than 0.026; as for U16G U17A G66C C75A, no more than 0.026.
Turning to G28U G61C, the nonsense suppression worked out at 0.321.
As for A14G U55G U71C, the figure is no more than 0.026; as for A33U C34G U58A G61C, no more than 0.026.
As for U4G G61A C82A, the figure is no more than 0.026.

(Values after the RNAGym collection of RNA variant scans (doi:10.1101/gad.245936.114).)
